Among all 54,000 compounds or so, about 120 (0.22%) were called active. Inconclusive results, whose numbers are uncertain, are shown with a selection of clear calls. Calls follow the shape of the dose curve; as a rule, active = well fitted inhibition curve with a large enough effect; inconclusive = small, poorly fitted or top-dose-only effect, or effect the other way; inactive = flat fitted curve, though single readings scatter. No potency is given beside an inconclusive call; the fits are too rough.
Each molecule was assayed against Fumarate hydratase, mitochondrial (Homo sapiens) (UniProt P07954) (assay: Identification of activators of human fumarate hydratase by quantitative high-throughput screening). Settings: FH coupled MDH/diaphorase resazurin fluorescence, 15 min; activity change, negative = inhibition: at 79.9 µM (top of the series).
UniProt P07954, sequence (P07954 whole entry, looked up): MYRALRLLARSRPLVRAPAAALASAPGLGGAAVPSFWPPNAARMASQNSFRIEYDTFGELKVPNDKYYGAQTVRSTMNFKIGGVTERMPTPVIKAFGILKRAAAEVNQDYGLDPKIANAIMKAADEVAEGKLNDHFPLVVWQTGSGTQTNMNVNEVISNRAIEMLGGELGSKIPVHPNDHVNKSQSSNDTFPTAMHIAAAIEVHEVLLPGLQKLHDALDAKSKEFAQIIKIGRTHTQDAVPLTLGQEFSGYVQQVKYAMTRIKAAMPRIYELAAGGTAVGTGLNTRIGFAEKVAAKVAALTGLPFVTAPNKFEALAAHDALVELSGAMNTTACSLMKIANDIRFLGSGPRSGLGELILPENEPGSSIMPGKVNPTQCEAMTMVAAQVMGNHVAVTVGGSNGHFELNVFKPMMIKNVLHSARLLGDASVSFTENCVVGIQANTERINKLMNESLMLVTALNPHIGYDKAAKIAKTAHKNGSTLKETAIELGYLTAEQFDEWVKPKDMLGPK
In the case of `Cc1c(Cl)cccc1-n1ncc(C(=O)Nc2ccc3c(c2)OCCO3)c1C1CCN(C(=O)OC(C)(C)C)CC1`, the Potency is reported as inconclusive [inhibitor, partial curve, poor fit].
With `COc1ccc(-c2nn(C)c3sc(C(=O)Nc4cccc(F)c4)cc23)cc1OC` the Potency was inconclusive [inhibitor, partial curve].
With `Cn1c(SCc2ccc(F)cc2)nc2ccc(C(=O)NCc3ccc(F)cc3)cc21` the Potency was “inactive”.
With `COc1ccccc1-c1nc(-c2ccc(Br)o2)no1` the Potency was inconclusive [inhibitor, single point].
With `CC(C)CCOc1ccc(C(=O)Nc2sc3c(c2C#N)CCCCC3)cc1` the Potency was “inactive”.
`Cc1ccc(-c2nc(CS(=O)CC(=O)N3CCN(c4ccccc4)CC3)c(C)o2)cc1` (stereo unspecified) was tested, and the Potency was inconclusive [inhibitor, partial curve, poor fit].
In the case of `COc1ccc(OC)c(NC(=O)CSc2cn(CC(=O)N3CCOCC3)c3ccccc23)c1`, the Potency is reported as inconclusive [inhibitor, partial curve, poor fit].
In the case of `O=C(NCc1ccco1)c1ccc2c(c1)N(Cc1cccc(Cl)c1)C(=O)c1ccccc1S2(=O)=O`, the Potency is reported as inconclusive [inhibitor, partial curve, poor fit].
For `COc1ccc(-c2nnc(SCC(=O)NCc3ccc(C)cc3)nc2-c2ccc(OC)c(OC)c2)cc1OC`, the activity change, negative = inhibition was inconclusive: -33.7% [inhibitor].
In the case of `CCCc1ccc(C2Sc3ccccc3NC3=C2C(=O)c2ccccc23)cc1` (stereo unspecified), the Potency is reported as inconclusive [inhibitor, single point].
For `O=C(Cn1c(=O)n(Cc2ccc3c(c2)OCO3)c(=O)c2oc3ccccc3c21)Nc1ccc(F)cc1`, the Potency was inconclusive [activator, full curve].
`Cc1oc(-c2ccccc2)nc1CCC(=O)c1ccc(CC2SC(=O)NC2=O)cc1` (stereo unspecified) was tested, and the Potency was “inactive”.
For `CCc1ccc(S(=O)(=O)NCCc2csc3nc(-c4ccccc4)nn23)s1`, the Potency was inconclusive [inhibitor, single point].
`CCOc1ccccc1NC(=O)c1c(NC(=O)c2ccccc2)sc2c1CCCC2` was tested, and the Potency was “inactive”.
In the case of `O=C(Cc1ccc(Cl)cc1)Nc1cnccc1C(=O)O`, the Potency is reported as “inactive”.
With `Cc1ccc(NS(=O)(=O)c2c(C(=O)N3CCC(C)CC3)c(C)n(C)c2C)cc1Cl` the Potency was inconclusive [inhibitor, partial curve, poor fit].
In the case of `CCc1ccc(CN(Cc2cn[nH]c2-c2ccc(OC)cc2)C(=O)Nc2ccc(C)c(F)c2)cc1`, the Potency is reported as inconclusive [inhibitor, partial curve, poor fit].
In the case of `CCN1CCN(c2oc(/C=C/c3ccccc3OC)nc2C#N)CC1`, the Potency is reported as “inactive”.
For `COc1cc(/C=C(\C#N)c2nc3ccccc3n2C)cc(OC)c1OC`, the Potency was inconclusive [inhibitor, partial curve].
With `Cc1ccc(-c2nc3ccccn3c2Nc2ccc3c(c2)OCO3)cc1` the Potency was inconclusive [inhibitor, full curve].
In the case of `Cc1csc2nc(-c3cccc(NC(=O)c4ccccc4Cl)c3)cn12`, the Potency is reported as “inactive”.
`Nc1nc2ccc(OC(F)(F)F)cc2s1` was tested, and the Potency was inconclusive [inhibitor, single point].
`Cc1ccc(CN2C(=O)C(O)(c3c[nH]c4ccccc34)c3cc(Cl)ccc32)cc1` (stereo unspecified) was tested, and the Potency was inconclusive [inhibitor, partial curve].
`COc1ccc(C2c3c(-c4c(C)cc(C)cc4O)n[nH]c3C(=O)N2Cc2ccco2)cc1` (stereo unspecified) was tested, and the Potency was “inactive”.
In the case of `CCOC(=O)c1cc(-c2ccccc2)n(CCCC(=O)Nc2ccc(C(C)C)cc2)c1C`, the Potency is reported as inconclusive [inhibitor, partial curve, poor fit].
`CNC(=O)c1cc(Oc2ccc(NC(=O)Nc3ccc(Cl)c(C(F)(F)F)c3)c(F)c2)ccn1` was tested, and the Potency was inconclusive [inhibitor, partial curve, poor fit].
In the case of `COC(=O)c1ccc(Nc2nnc(-c3ccc(C)c(S(=O)(=O)N4CCN(C)CC4)c3)c3ccccc23)cc1`, the Potency is reported as inconclusive [inhibitor, partial curve, poor fit].
For `COc1ccc(-c2nc3ccccc3s2)cc1NC(=O)COc1ccc(C)cc1`, the Potency was “inactive”.
In the case of `Cc1ccc2c(C)c(C(=O)N(Cc3ccc(Cl)cc3)C3CCS(=O)(=O)C3)oc2c1` (stereo unspecified), the Potency is reported as inconclusive [inhibitor, single point].
`COc1ccc(OC)c(NC(=O)CSC2=Nc3ccccc3C3=NC(CC(=O)NCc4ccc5c(c4)OCO5)C(=O)N23)c1` (stereo unspecified) was tested, and the Potency was inconclusive [inhibitor, single point].
For `O=S(=O)(Nc1cc(Cl)c(Oc2cnc3ccccc3c2)c(Cl)c1)c1ccc(Cl)cc1Cl`, the Potency was inconclusive [inhibitor, single point].
In the case of `CCCOc1cccc(C(=O)Nc2cccc(NC(=O)c3ccc(C(C)(C)C)cc3)c2)c1`, the Potency is reported as “inactive”.
With `CCC(C(=O)Nc1cc(Cl)ccc1OC)n1nc(-c2ccccc2)ccc1=O` (stereo unspecified) the Potency was inconclusive [inhibitor, partial curve, poor fit].
`Cc1ccc(Nc2c(-c3c[nH]c4ccccc34)nc3cc(C)ccn23)cc1` was tested, and the Potency was inconclusive [inhibitor, single point].
In the case of `CCOC(=O)CC(NS(=O)(=O)c1ccc2[nH]c3c(c2c1)CCCC3)c1ccccc1Cl` (stereo unspecified), the Potency is reported as inconclusive [inhibitor, single point].
With `CC(C)OCCCNC(=O)c1ccc2c(c1)N(Cc1c(F)cccc1Cl)C(=O)c1ccccc1S2` the Potency was inconclusive [inhibitor, partial curve, poor fit].
In the case of `NC(=O)Nc1cc(-c2cccc(F)c2)sc1C(=O)NC1CCCNC1` (stereo unspecified), the Potency is reported as “inactive”.
For `O=C(Nc1ccccc1-c1cn2c(CN3CCNCC3)csc2n1)c1cnc2ccccc2n1`, the Potency was inconclusive [inhibitor, single point].
In the case of `CCOc1ccc(S(=O)(=O)NCCc2sc3nc(-c4ccc(F)cc4)nn3c2C)cc1`, the activity change, negative = inhibition is reported as inconclusive: -30.4% [inhibitor].
`COc1ccc(-c2[nH]c3ccccc3c2SCCNC(=O)c2cc(OC)c(OC)c(OC)c2)cc1` was tested, and the Potency was inconclusive [inhibitor, single point].
For `COc1ccc(Cl)cc1NC(=O)c1c(NCc2ccc(C)o2)sc2c1CCCCC2`, the Potency was inconclusive [inhibitor, partial curve, poor fit].
In the case of `CCn1c(C(=O)NCCc2ccc(OC)c(OC)c2)cc2sc(Cl)cc21`, the Potency is reported as inconclusive [inhibitor, partial curve, poor fit].
With `CCCCOc1ccc(-c2nn(-c3ccccc3)cc2C2NC(=O)NC(C)=C2C(=O)OC)cc1` (stereo unspecified) the Potency was inconclusive [inhibitor, single point].
In the case of `CN(C)CCN(C)C(=O)c1ccc(NC(=O)Nc2ccc(-c3nc(N4CCOCC4)c4ccn(CC(F)(F)F)c4n3)cc2)cc1`, the Potency is reported as “inactive”.
For `CCOC(=O)c1cc(S(=O)(=O)N2CCN(c3cc(Cl)ccc3C)CC2)[nH]n1`, the Potency was inconclusive [inhibitor, single point].
In the case of `Cc1oc(-c2ccccc2Cl)nc1CS(=O)(=O)CC(=O)NC(C)CCc1ccccc1` (stereo unspecified), the Potency is reported as inconclusive [inhibitor, partial curve, poor fit].
In the case of `CCOc1ccc(S(=O)(=O)N(C(C)=O)c2ccc3oc(C)c(C(=O)OC)c3c2)cc1`, the Potency is reported as inconclusive [inhibitor, partial curve, poor fit].
With `COc1cc(Br)c(S(=O)(=O)Nc2ccc(C(F)(F)F)c(O[C@@H]3CCN(C)C3)c2)cc1OC` the Potency was “inactive”.
With `Cc1nc(-c2ccc(S(=O)(=O)Nc3ccc(OC(F)(F)F)cc3)cc2)co1` the Potency was “inactive”.
In the case of `CCOc1ccccc1NC(=O)CCc1nc(-c2cccc(C)c2)no1`, the Potency is reported as inconclusive [inhibitor, partial curve].
With `COc1ccc(-c2nc(SCC(=O)Nc3ccc4c(c3)OCO4)c(-c3ccc(F)cc3)[nH]2)cc1OC` the Potency was inconclusive [inhibitor, single point].
With `Cc1ccc(-c2nc(C(=O)Nc3cccc(C#N)c3)c3n2CCCCC3)cc1` the Potency was inconclusive [inhibitor, partial curve, poor fit].
With `Cc1cc2nc(-c3cccc(NC(=O)COc4ccc(C(C)C)cc4)c3)oc2cc1C` the Potency was “inactive”.
For `CCCCCCCCCCCCOCCOCCOCCOCCOCCOCCOCCOCCOCCO`, the Potency was “inactive”.
In the case of `COc1ccc(NC(=O)CSc2nc(-c3ccc(OC)c(OC)c3)[nH]c2-c2ccc(C)cc2)cc1`, the Potency is reported as inconclusive [inhibitor, partial curve].
In the case of `COc1ccc(NCc2cc3cc4c(cc3n(CC(=O)Nc3ccccc3)c2=O)OCO4)cc1`, the Potency is reported as inconclusive [inhibitor, partial curve, poor fit].
With `COc1cc(C2c3cc4c(c(O)c3CC(CO)C2C(=O)O)OCO4)cc(OC)c1O` (stereo unspecified) the Potency was “inactive”.
In the case of `Cc1ccc(C2c3c(-c4ccccc4O)n[nH]c3C(=O)N2CCc2ccccc2)cc1` (stereo unspecified), the Potency is reported as inconclusive [inhibitor, single point].
For `COc1cc(N2CCC(O)CC2)ccc1Nc1cc(Nc2ccccc2S(=O)(=O)C(C)C)c2cc[nH]c2n1`, the Potency was inconclusive [inhibitor, partial curve, poor fit].
In the case of `O=C(CCCCn1c(=O)c2ccccc2n(CC(=O)Nc2ccc(F)cc2F)c1=O)NCc1ccccc1Cl`, the Potency is reported as “inactive”.
For `Oc1cccc(Nc2ccnc3cc(-c4cccc(CN5CCOCC5)c4)sc23)c1`, the Potency was “inactive”.

Reference: PubChem BioAssay AID1347055 (National Center for Advancing Translational Sciences (NCATS), 2019)
% is scaled to controls: 0 for no effect and ±100 for the full control effect; potency is read from the fitted curve at half-maximal effect; tags tell the direction and shape of the fitted curve.
Also: the screen sought activators but most active calls are inhibition curves; nearly all actives have a fitted effect of over 45% in size.
